Assay results published in publication PMC4336329 (PLoS ONE, 2015).
Out of some 310,000 compounds screened, about 14,000 (4.5%) showed an effect of 50% or more. Effects have a minus sign here. The list shows a part of the results.

biological target: human ether-à-go-go-related gene (hERG) potassium channel (human, UniProt Q12809); assay: primary screen, population patch clamp on CHO cells stably expressing hERG
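Note: peak tail current of the secondary pulse compared with the same well before compound.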

Sequence of human ether-à-go-go-related gene (hERG) potassium channel (Q12809 whole entry, looked up): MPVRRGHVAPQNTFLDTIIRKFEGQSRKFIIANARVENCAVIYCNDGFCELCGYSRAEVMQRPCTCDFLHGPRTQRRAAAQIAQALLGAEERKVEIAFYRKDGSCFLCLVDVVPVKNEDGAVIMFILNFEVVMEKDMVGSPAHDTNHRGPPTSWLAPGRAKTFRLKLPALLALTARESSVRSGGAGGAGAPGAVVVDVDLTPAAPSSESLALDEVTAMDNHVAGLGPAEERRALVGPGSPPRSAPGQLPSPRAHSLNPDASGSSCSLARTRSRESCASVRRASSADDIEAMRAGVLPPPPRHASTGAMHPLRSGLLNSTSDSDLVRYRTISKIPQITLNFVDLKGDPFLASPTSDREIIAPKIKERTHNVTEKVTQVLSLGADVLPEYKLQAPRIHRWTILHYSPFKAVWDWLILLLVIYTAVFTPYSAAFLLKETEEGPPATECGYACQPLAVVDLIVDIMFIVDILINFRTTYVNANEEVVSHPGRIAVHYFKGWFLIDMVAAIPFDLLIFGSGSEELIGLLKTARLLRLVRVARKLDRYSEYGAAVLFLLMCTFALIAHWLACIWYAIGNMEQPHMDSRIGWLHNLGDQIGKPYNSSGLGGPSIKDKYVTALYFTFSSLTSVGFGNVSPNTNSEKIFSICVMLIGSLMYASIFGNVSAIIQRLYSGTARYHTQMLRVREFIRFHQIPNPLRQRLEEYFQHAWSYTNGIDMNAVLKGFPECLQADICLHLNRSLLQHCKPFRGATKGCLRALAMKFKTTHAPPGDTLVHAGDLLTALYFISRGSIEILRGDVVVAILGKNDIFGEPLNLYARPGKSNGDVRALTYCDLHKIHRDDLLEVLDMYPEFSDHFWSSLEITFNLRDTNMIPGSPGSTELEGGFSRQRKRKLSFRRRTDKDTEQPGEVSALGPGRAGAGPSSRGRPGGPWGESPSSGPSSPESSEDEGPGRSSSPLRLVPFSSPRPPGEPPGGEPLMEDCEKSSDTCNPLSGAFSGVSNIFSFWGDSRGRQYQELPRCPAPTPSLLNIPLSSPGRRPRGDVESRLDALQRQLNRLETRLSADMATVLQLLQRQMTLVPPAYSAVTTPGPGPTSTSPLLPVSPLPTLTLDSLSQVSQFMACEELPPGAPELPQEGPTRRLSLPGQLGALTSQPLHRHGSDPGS

| SMILES | hERG current change (%, negative = inhibition) at 10uM |
| --- | --- |
| CN1CC(=O)Nc2ccc(F)cc2C1=O | 13.3% |
| C#CCN[C@H](C)Cc1ccccc1.Cl | 1.08% |
| COCCn1c(-c2ccccc2)nc(=S)c2c1CC(C)(C)OC2 | -11.5% |
| OCCNc1nc(Nc2ccccc2O)nc(N2CCCC2)n1 | -20.7% |
| Clc1ccc(OCc2noc(-c3ccsc3)n2)c(Cl)c1 | 12.9% |
| N#CC1=C(SCC(=O)Nc2ccccc2)NC(=O)CC1c1ccc(O)cc1 (centres unmarked) | 0.978% |
| COCc1cc(C)[nH]c(=O)c1C#N | 15.2% |
| Cn1c(=O)c2c(ncn2CC(=O)Nc2ccccc2N2CCOCC2)n(C)c1=O | -3.4% |
| O=C(COC(=O)c1ccc[nH]c1=O)NCCCc1ccccc1 | 17.5% |
| CC1CCCCC1NC(=O)COC(=O)c1ccc(N(C)C)cc1 (centres unmarked) | 5.75% |
| COc1ccc(C2=NNC(c3cc(Cl)cc4c3OCOC4)C2)c(O)c1 (centres unmarked) | 7.19% |
| Cc1cc(NC(=O)CCC(=O)N(CC(=O)NC2CCCC2)Cc2ccco2)no1 | -0.447% |
| CCCc1ccc(OCC(O)CN2CCN(c3ccccn3)CC2)cc1.Cl (centres unmarked) | -63.6% |
| CC(=O)c1ccc(-c2nc3ccccc3n2C)o1 | 12.7% |
| COc1ccc(NC(=O)CSc2nnc(COc3ccccc3)n2Cc2ccco2)cc1OC | -32.4% |
| COc1cc(NC(=O)c2cc(-c3cccs3)on2)cc(OC)c1OC | -49.6% |
| COc1ccc(CCNC(=O)CSCc2ccc([N+](=O)[O-])cc2)cc1OC | -37.5% |
| Brc1ccccc1OCCCN1CCOCC1 | 10.8% |
| O=[N+]([O-])c1cc(C(F)(F)F)cc([N+](=O)[O-])c1Sc1n[nH]c(C(F)(F)F)n1 | 8.69% |
| CC(=O)c1c(C)n(CCc2ccc(Cl)cc2)c2ccc(O)cc12 | 20.8% |
| O=C(COC(=O)C1COc2ccccc2O1)Nc1ccc(Cl)cc1 (centres unmarked) | 6.38% |
| Cc1ccc(-n2nc3c(=O)n(C(C)C(=O)NCCc4cccs4)nc(C)c3c2C)cc1 (centres unmarked) | -37.8% |

| SMILES | hERG current change (%, negative = inhibition) at 10uM |
| --- | --- |
| O=C(Nc1nccs1)c1ccc([N+](=O)[O-])cc1 | -1.65% |
| CCCCC(=O)Nc1ccc(C(=O)NN2C(=O)c3ccccc3C2=O)cc1 | -2.92% |
| COc1ccc(N2CCN(C(=O)CCCNC(=O)Cn3cnc4sc(C)c(C)c4c3=O)CC2)cc1 | -3.24% |
| CC(=O)Nc1ccc(NS(=O)(=O)c2ccc(C)cc2)cc1[N+](=O)[O-] | 19% |
| O=C(CNS(=O)(=O)c1cccc(Br)c1)NCC1CCCCC1 | -1.42% |
| CCCC(=O)N1CCN(c2nnc(-c3ccc(C)cc3)c3ccccc23)CC1 | -81.1% |
| COc1ccc([C@@H]2[C@@H]3C(=O)N(C(C)(C)C)C(=O)[C@@H]3[C@]3(C)C(=O)N(c4cccc(Br)c4)C(=O)N23)cc1 | -0.523% |
| CCN(CC)c1nc(OCCNC(=O)Nc2ccccc2)nc(N(CC)CC)n1 | 1.53% |
| COc1ccc(NS(=O)(=O)c2cccs2)cc1S(=O)(=O)N1CCCCC1 | -8.42% |
| CCCCN(C(=O)C(CCSC)N1C(=O)c2ccccc2C1=O)c1c(N)n(CCC)c(=O)[nH]c1=O (centres unmarked) | 8.96% |
| O=S(=O)(NC1CC2CCC1C2)c1ccc(Br)s1 (centres unmarked) | -26.1% |
| CCN(CC)CCn1c2ccccc2c2nc3ccc([N+](=O)[O-])cc3cc21 | 8.26% |
| CC[C@@H](C)[C@H](NC(=O)OCc1ccccc1)c1nnc([C@@H](NC(=O)OCc2ccccc2)[C@@H](C)CC)o1 | -3.65% |
| CCCC(=O)Nc1cc(C)c(NC(=O)C23CC4CC(CC(C4)C2)C3)cn1 | -10% |
| O=C(c1cc(-c2ccc(F)cc2)on1)N1CCN(c2ccc(F)cc2)CC1 | 0.323% |
| C#CCOCCOCCOCCNc1nc(N2CCN(C(=O)[C@H]([C@@H](C)CC)n3cc([C@@H](N)Cc4ccc(O)cc4)nn3)CC2)nc(N2CCN(C(=O)[C@H](Cc3ccc(O)cc3)n3cc([C@@H](N)CC(C)C)nn3)CC2)n1.Cl | 5.43% |
| CCN(C(=O)c1cc(Cl)ccc1OC)c1ccccc1C | -3.46% |
| O=C(O)C1=C[C@H](c2ccc3c(c2)OCO3)C[C@H](OCCCCO)O1 | 9.18% |
| CCc1nnc(SCC(=O)Nc2ccc3c(c2)OCO3)o1 | 21.7% |
| O=C(COC(=O)Cc1c(Cl)cccc1Cl)NCC1CCCO1 (centres unmarked) | 9.58% |
| CC1CCC(CN2C(Nc3ccccc3)=NC[C@@H]2C)CC1 (some centres unmarked) | -9.6% |
| CC(NC(=O)C(C(=O)c1cccc([N+](=O)[O-])c1)n1cc(Cl)ccc1=O)c1ccccc1 (centres unmarked) | -15% |

| SMILES | hERG current change (%, negative = inhibition) at 10uM |
| --- | --- |
| Cc1cccnc1NC(=O)c1ccc(COc2ccccc2)o1 | 3.37% |
| Cn1cccc1/C=N/NC(=O)CNc1ccc2ccccc2c1 | 8.73% |
| S=C(NCc1ccccc1)Nc1ccc2ccccc2c1 | 12.4% |
| CC(=O)N[C@@H](Cc1c[nH]c2ccccc12)C(=O)NCCc1ccc(S(N)(=O)=O)cc1 | 11% |
| O=C(CC12CC3CC(CC(C3)C1)C2)NCc1ccccc1 | 15% |
| Fc1ccc(CSc2ccc(-c3ccco3)nn2)cc1 | 12.4% |
| Cc1ccc(NC(=S)NCc2ccccc2)cc1[N+](=O)[O-] | -2.6% |
| Cc1ccc2cc(C#N)c(N3CCN(C(=O)c4ccccc4)CC3)nc2c1 | -67.1% |
| CS(=O)(=O)N1CCC(C(=O)Nc2ccc3c(c2)OCO3)CC1 | -7.81% |
| COc1ccc(CCN(C)C(=S)Nc2ccc(SC(F)F)cc2)cc1OC | -74.7% |
| CC(C)(C)OC(=O)NCCCCCc1cn([C@@H](CO)C(=O)NCCCCCCCCCCC(=O)N2CCN(C(=O)OC(C)(C)C)CC2)nn1 | -2.09% |
| CN(CC(=O)Nc1cccc(F)c1)C(=O)c1ccc2c(=O)n3c(nc2c1)CCC3 | 14.9% |
| CCc1ccc(NC(=O)C(=O)N/N=C(\C)CC(=O)NCc2ccc(Cl)cc2)cc1 | -11.4% |
| CN(C)c1ccc(NC(=O)/C=C/c2c(Cl)cccc2Cl)cc1 | 4.91% |
| Cc1ccc(S(=O)(=O)N(CC(=O)N2CCC(C)CC2)Cc2ccccc2F)cc1 | -36.5% |
| CCOC(=O)c1nnn(-c2nonc2N)c1-c1ccc(OCC)cc1 | -9.25% |
| COc1cc(OC)c(NS(=O)(=O)c2coc(C(N)=O)c2)cc1Cl | 13.5% |
| CC(C)(C)C1CCC(C(=O)NCC(c2cccs2)N2CCOCC2)CC1 (centres unmarked) | -9.21% |
| CC(C)[C@H](NC(=O)c1ccccc1F)C(=O)Nc1ccc(F)c(F)c1 | 8.12% |
| CC(=O)O[C@]1(C(C)=O)CC[C@H]2[C@@H]3C=C(C)C4=CC(=O)CC[C@]4(C)[C@H]3CC[C@@]21C | -10.8% |
| CN(CC(=O)Nc1ccc(F)cc1)C(=O)COC(=O)CCN1C(=O)C2CC=CCC2C1=O (centres unmarked) | 20.6% |
| COc1ccccc1C(=O)Nc1cccc(Oc2c(F)c(F)c(F)c(F)c2F)c1 | 15.6% |

| SMILES | hERG current change (%, negative = inhibition) at 10uM |
| --- | --- |
| CCN(C(=O)COC(=O)C1CCN(S(=O)(=O)c2cccs2)CC1)c1ccccc1 | 22% |
| CC(OC(=O)c1ccco1)C(=O)NC1CCCC1 (centres unmarked) | 3.02% |
| CC[C@H](C)[C@H](NC(N)=O)C(=O)Nc1ccc(S(=O)(=O)NC(C)C)cc1 | 2.25% |
| CCC(C)[C@H](NC(=O)Nc1cccc(Br)c1)C(=O)OC (some centres unmarked) | 0.886% |
| Cc1nc2cc3ccccc3cc2n1C | -11.1% |
| c1ccc(-n2nnc(-c3cccnc3)n2)cc1 | 8.52% |
| CC(C)(C)c1ccc(C(=O)N/N=C/c2cccc(Cl)c2)cc1 | 4.99% |
| CC(C)(C)c1cc(C(=O)N/N=C/c2cc3c(cc2Br)OCO3)n[nH]1 | 11.1% |
| Nc1c(C(=O)NCCc2ccccc2)nnn1Cc1ccc(Br)cc1F | 9.55% |
| N#CC(C#N)=Cc1c[nH]c(=O)c(C#N)c1Nc1ccccc1 | 16.1% |
| COc1ccc(OC)c(NC(=O)COc2coc(CN3CCCc4ccccc43)cc2=O)c1 | 7.53% |
| CC(=O)N(C(C)=O)c1ncnc2c1c(-c1ccc(Cl)cc1)nn2C(C)(C)C | 5.52% |
| COC(=O)c1[nH]c(=O)c2ccccc2c1OCc1ccccc1 | -1.05% |
| Cc1c(N(C)C(=O)c2ccc3c(c2)OCO3)c(=O)n(-c2ccccc2)n1C | 12.5% |
| O=C(NCCN1CCOCC1)C1CCC(=O)N1Cc1ccc(F)cc1 (centres unmarked) | 1.05% |
| COc1cc(/C=C/C(=O)OCC(=O)N2CCCc3ccccc32)ccc1OC(F)F | -22.8% |
| COc1ccc(-n2c(C)cc(=O)c3c2CC(C)(C)CC3=O)cc1 | 8.91% |
| O=Cc1c(Cl)nc2ccccn12 | 14.8% |
| CNC(=S)N1N=C(c2cccs2)CC1c1ccc(OC)cc1 (centres unmarked) | -10.7% |
| C=CCN(Cc1ccc(OC)c(OC)c1)C(=O)c1cc2cc(F)ccc2[nH]1 | 4.14% |
